Over roughly 33,000 sequences, “E-score (-0.5 to 0.5)” has its median near -0.032; the highest 2% begin near 0.36. This is one part of the list.
target: T1, Sko1 (UniProt Q02100); experiment: PBM E-score (8-mer binding enrichment) (E-score (-0.5 to 0.5)); higher = stronger / more preferred TF binding; most listed sequences are background and not binding sites; conditions: protein concentration: 200 nM; construct: GST-full length
T1 sequence: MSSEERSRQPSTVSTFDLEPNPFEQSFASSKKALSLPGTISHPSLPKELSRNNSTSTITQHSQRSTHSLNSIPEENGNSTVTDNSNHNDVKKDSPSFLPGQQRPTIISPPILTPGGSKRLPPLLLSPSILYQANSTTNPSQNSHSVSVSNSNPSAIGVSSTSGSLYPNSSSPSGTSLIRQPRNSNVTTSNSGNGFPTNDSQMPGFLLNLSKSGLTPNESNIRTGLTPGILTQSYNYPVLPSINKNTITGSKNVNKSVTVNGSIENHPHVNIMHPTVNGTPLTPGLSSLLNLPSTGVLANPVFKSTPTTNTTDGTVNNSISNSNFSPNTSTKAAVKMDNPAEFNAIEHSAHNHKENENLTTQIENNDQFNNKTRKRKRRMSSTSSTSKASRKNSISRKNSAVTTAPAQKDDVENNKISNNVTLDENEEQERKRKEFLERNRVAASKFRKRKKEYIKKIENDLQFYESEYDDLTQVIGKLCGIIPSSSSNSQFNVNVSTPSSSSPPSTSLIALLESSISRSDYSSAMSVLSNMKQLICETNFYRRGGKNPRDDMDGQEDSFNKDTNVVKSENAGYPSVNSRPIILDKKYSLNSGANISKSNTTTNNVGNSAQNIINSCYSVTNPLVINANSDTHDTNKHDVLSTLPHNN
Description: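 Universal 'all 10-mer' protein binding microarrays (Agilent AMADID 015681) probed with GST-tagged S. cerevisiae TFs (full-length or DBD) made by in vitro transcription/translation (PURExpress), about 100-200 nM. Bound TF was detected with fluorescent anti-GST. Each ungapped 8-mer (which stands for itself and its reverse complement) is scored by the PBM enrichment score (E-score), a modified Wilcoxon-Mann-Whitney statistic from -0.5 to +0.5, computed with the Universal PBM Analysis Suite. Scale: above 0.35 generally sequence-specific binding.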

In order of falling “PBM E-score” value:
1. CGTCATAC  0.486
2. ACGTAGAC  0.415
3. CGTAGATA  0.305
4. TAATATCA  0.276
5. TAACATAA  0.275
6. ACATATAT  0.271
7. CTGACATA  0.266
8. GTATATAA  0.258
9. GATATATA  0.257
10. ATCATTCA  0.252
11. ATTGCGCA  0.251
12. CGTAAAGC  0.242
13. CGACACAC  0.219
14. AATGGGTA  0.199
15. ATTGTCAC  0.191
16. GACGAGAA  0.191
17. ACTATTCG  0.179
18. GTCAGTGA  0.178
19. AGTGTTTA  0.178
20. ATTTAAAT  0.177
21. TACTCGAA  0.164
22. AGGATTGA  0.158
23. GCCGTATA  0.158
24. CGAACTAC  0.157
25. ACAATCCA  0.157
26. CGCTATGC  0.147
27. CATTCGCG  0.147
28. AGTGACGG  0.146
29. ATATGTGG  0.141
30. CTTTCGTC  0.139
31. GGTAAACA  0.136
32. ACTATAAC  0.129
33. GCAATGAA  0.128
34. AAATCTTA  0.127
35. AAGTAAGG  0.127
36. TACCATAA  0.125
37. ATCGTAGG  0.119
38. ATTGGACG  0.114
39. ACCTTAAT  0.114
40. ATGTTGCA  0.111
41. GTGATAGA  0.111
42. TACCACGA  0.109
43. CATTGTTA  0.108
44. CGGAATGA  0.107
45. TAAGGTAA  0.107
46. TACAATAA  0.106
47. ATATAATG  0.105
48. ATTGGTTC  0.0977
49. TTGGGAAA  0.0975
50. AACTTAGC  0.0908
51. CAGAGACG  0.0896
52. GAGTGATA  0.088
53. CAAGCATG  0.0857
54. ATCTTACA  0.081
55. CTCATCCA  0.0808
56. AACGCCAA  0.0776
57. CAATTCAA  0.0751
58. AGATGCGC  0.0737
59. GCGGATTA  0.0702
60. CGACGGGC  0.0654
61. AGTGTGGC  0.061
62. GTGTCGCA  0.0574
63. AGAGAAAA  0.0565
64. AACGGTAT  0.051
65. ATGACTCG  0.0504
66. ATTTAAAG  0.0498
67. CCGCATAA  0.0495
68. ATTCTGTG  0.0485
69. CGGGTTAC  0.0485
70. AGCCAAGA  0.0413
71. CAAAACCG  0.0409
72. AACGGATC  0.0398
73. ACGACGGC  0.0388
74. AGCGACGA  0.0375
75. CCCGCGTC  0.0324
76. ATGCAGCC  0.0314
77. AGCAATCG  0.0261
78. GTGATCAC  0.025
79. AGATAAAG  0.0246
80. GTGTAAGA  0.0148
81. ACTTTGCT  0.0126
82. CCAAGAAG  0.00927
83. CAAGGGTG  0.00919
84. CATCCGAA  0.00623
85. ATCTTGTC  0.0024
86. AGACAACT  -0.00069
87. ACCCAATC  -0.00096
88. AGTGAAGC  -0.00277
89. AAGAGCGC  -0.00548
90. GGAACGAA  -0.00675
91. GGGACGAC  -0.00738
92. GCCTTTAA  -0.00961
93. GGTCGTTA  -0.0165
94. CGATTAGC  -0.019
95. GAGAGAGA  -0.0195
96. GGTATAAA  -0.0207
97. ACTACCAA  -0.0265
98. CGTTAAAA  -0.0266
99. GTGCCACA  -0.0272
100. CATTCCAG  -0.0293
101. TGCTCTAA  -0.0299
102. AGGACTTA  -0.0304
103. CGAGTGAC  -0.0304
104. CGATTCGC  -0.0305
105. GCGACACA  -0.0306
106. AGATTGCA  -0.0307
107. AGAAAAGC  -0.032
108. GCCCAATA  -0.0368
109. CGCGGATC  -0.0369
110. CCCTTTGC  -0.0437
111. CTGCGCGA  -0.0439
112. GATTGCAA  -0.0446
113. AATCGACC  -0.0464
114. CATTATGG  -0.0468
115. AGTTGGCA  -0.0505
116. ACCGCGGA  -0.0522
117. TCCTTTAA  -0.0526
118. GACCGCTA  -0.0571
119. GGCTTCTA  -0.0573
120. GCTTCGAA  -0.0594
121. CCTAACCA  -0.0611
122. GAATGCTA  -0.0644
123. AAAGGTCA  -0.0662
124. AAAGCATC  -0.0705
125. TACTAGGA  -0.0768
126. CGCATGGA  -0.0774
127. AGGCGGCG  -0.0776
128. CACTACGG  -0.0887
129. GATCGAGA  -0.0936
130. ATACGGTC  -0.0959
131. ATTTCGGC  -0.0959
132. ATGGGGAA  -0.0964
133. GGAACACA  -0.0973
134. ACTGTGGG  -0.0973
135. AATCGGGC  -0.105
136. CGCTAGAG  -0.107
137. CTAACGGC  -0.11
138. ACTACTTC  -0.111
139. ACCCCTTA  -0.111
140. ACTTCACT  -0.113
141. CCAATCGG  -0.117
142. GAGGTGTA  -0.117
143. GGAACCCA  -0.118
144. CCCCGCTA  -0.118
145. GCCGACGA  -0.118
146. CCGCGATC  -0.118
147. GGATTGCC  -0.121
148. GAGTAGCC  -0.125
149. GCCATTCC  -0.127
150. TCCGATCA  -0.128
151. AGTGAGAG  -0.129
152. CCTTCATC  -0.13
153. GCGGAAGC  -0.13
154. AAATCTGG  -0.131
155. CGAAGCTC  -0.138
156. ACTTTGCC  -0.138
157. AGTTCCCC  -0.139
158. AGAACCAA  -0.14
159. AAAGCGGA  -0.141
160. CTTGGAGC  -0.145
161. TCACCAGA  -0.147
162. GCTGCAGC  -0.149
163. CTGGGACC  -0.153
164. CCCGGTAG  -0.154
165. CATGGAGC  -0.156
166. CGGCACTA  -0.158
167. AATAAGGA  -0.158
168. CTACCGTC  -0.163
169. AGAAGGAG  -0.164
170. CACCAGTC  -0.164
171. ACAGTAGC  -0.168
172. GCGTTACC  -0.169
173. CACTGCCC  -0.17
174. CTTCAGGC  -0.173
175. CAGTCTAC  -0.174
176. GGCGCACA  -0.175
177. CTAACCGA  -0.177
178. GGGTAGCA  -0.179
179. CTCTCTGA  -0.181
180. CCCAGTAC  -0.186
181. AGACAGAG  -0.188
182. ACACGAGC  -0.188
183. GGGAGACA  -0.191
184. AGGGAAAT  -0.196
185. AATGTGCC  -0.201
186. CCTGCATA  -0.204
187. AAGCGAGG  -0.214
188. ACACCACC  -0.217
189. ATGTGGCC  -0.221
190. GCCCCTCC  -0.221
191. GCCCAGCA  -0.226
192. AGGACACT  -0.228
193. CGGCAACC  -0.229
194. AGCTGAAC  -0.23
195. CGCACAGC  -0.233
196. CTGAGAGC  -0.235
197. ACCGAGCC  -0.239
198. CCGCGAGC  -0.239
199. AGAGACCG  -0.242
200. CTGGGCGC  -0.248
201. AGATAACC  -0.249
202. ACCCCCGG  -0.253
203. CTAGAGAG  -0.253
204. GACTGGCA  -0.258
205. AGAGGTCC  -0.258
206. CGGCCGTC  -0.264
207. CCTTCGCG  -0.265
208. CGGGTAAG  -0.276
209. CAATTGGG  -0.277
210. CAGCTGCC  -0.28
211. ACTATCCC  -0.29
212. AAGGGGGC  -0.294
213. ATGGCCGG  -0.3
214. CCCGCTCA  -0.307
215. AGGCGCAG  -0.308
216. AATTCGGC  -0.315
217. CCGGGCAA  -0.329
218. GGACTCGA  -0.342
219. GCACCTCC  -0.382
